Measured values reported in PubChem BioAssay AID463173 (ICCB-Longwood Screening Facility, Harvard Medical School, 2010).
In all, about 52,000 compounds went through this assay and about 4,300 (8.3%) were called active. No stated cut-off is given here; in the data, active means survival mostly below about 52% (no sharp cut-off); inactive means mostly above about 56%. The list shows a part of the results.

system: DeltatarO mutant; assay: S. aureus survival, RN4220 and DeltatarO strains – OD600, teichoic acid synthesis inhibitors, primary screen (AID 463173); settings: S. aureus RN4220 wild type/DeltatarO growth, OD600, 18 h, stronger effect = lower value, screened at 18.75 µg/mL (by protocol)

SMILES | survival
Cc1ccc(NCc2nc3ccccc3n2CCOc2ccccc2)cc1 | active: 3%
CCCCn1c(CNC(=O)c2ccc(OC)cc2)nnc1SCC(=O)Nc1ccc(OC)cc1 | inactive: 76%
Cc1cc(NC(=O)Nc2nc3c(s2)CCCCCC3)ccc1Br | inactive: 99%
CCC(=O)N1CCc2cc(S(=O)(=O)CCC(=O)NCc3ccccc3OC)ccc21 | inactive: 81%
Cc1ccc(CNC(=O)CCS(=O)(=O)c2cc(Br)cc3c2N(C(=O)C2CC2)CC3)cc1 | inactive: 131%
O=C(Nc1ccc(Cl)cc1)N1CCN(c2ccc3nnc(-c4ccc(F)cc4)n3n2)CC1 | inactive: 68%
CC1CCN(c2ccc(-c3nc(C(C)C)no3)cc2[N+](=O)[O-])CC1 | inactive: 48%
N#Cc1ccccc1CSc1nc(N)cc(N)n1 | inactive: 106%
CCN(CC)CCNC(=O)c1ccc(Cn2c(=O)c3cccn3c3cccnc32)cc1 | inactive: 65%
Cc1ccc(-n2ncc(C(=O)NCCc3ccsc3)c2C2CCN(C(=O)OC(C)(C)C)CC2)cc1C | inactive: 77%
Cc1nc2ccccc2c(=O)n1-c1ccc(NC(=O)C(F)(F)F)cc1 | inactive: 74%
Cc1cc(NC(=O)CSc2ncc(C(=O)Nc3ccc(F)cc3)c(=O)n2C)no1 | inactive: 80%
COc1ccc2nc3oc(C(=O)NCc4ccccc4OC)cc3cc2c1 | inactive: 103%
NC(=O)CSc1ncc2c(n1)-c1ccccc1N(Cc1cccc(F)c1)S2(=O)=O | inactive: 100%
COc1ccccc1-c1nnc(C2CCN(C(=O)c3ccc(C)cc3)CC2)o1 | inactive: 91%
COc1ccc(-c2noc(-c3nnn(-c4cc(C)ccc4C)c3N)n2)cc1 | inactive: 81%
CC1(C)CC(=O)c2c(oc3c(Cl)cc(NS(=O)(=O)c4ccc(Cl)cc4)cc23)C1 | inactive: 64%
CN(C)S(=O)(=O)c1ccc2c(c1)N(CC(=O)N1CCN(c3ccc(F)cc3)CC1)CCS2 | inactive: 94%
N#C/C(=C\c1cn(Cc2ccc(C#N)cc2)c2ccccc12)C(=O)NCc1ccco1 | inactive: 67%
C=Cc1ccc(Cn2c(C(=O)O)c(CNCc3cc(Br)ccc3OC)c3ccc(C)cc32)cc1 | inactive: 97%
Cc1cccc(N2CCN(C(=O)CS(=O)(=O)c3cccc4nsnc34)CC2C)c1 (stereo not given) | inactive: 67%
CCCN1C(=O)C2(c3ccccc31)c1c(oc3ccccc3c1=O)C(=O)N2CCO (stereo not given) | inactive: 93%
O=C(CC(NCc1cccnc1)C(=O)O)Nc1ccc(F)cc1 (stereo not given) | inactive: 77%
O=c1oc2ccc(Br)cc2cc1-c1csc(-c2ccc(Cl)cc2)n1 | inactive: 94%
CCCNC(=O)c1ccc(-n2c(-c3ccccc3)cc3c2CCC(C)C3)cc1 (stereo not given) | inactive: 95%
